# From the supplement of paper PMC8728848
# The other results are listed elsewhere or left out.
# Experiments:
# Assay in all cases: glycan array binding signal (z-score within array); higher = stronger binding
# Details in all cases: glycan notation: IUPAC condensed, linker removed
# [1] = target: Fuc(a1-2)[Gal(a1-4)]Gal(b1-4)GlcNAc
# Outline: (§1)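 The binding signal is a Z-score computed within each array. Data were drawn from 3228 arrays in the Consortium for Functional Glycomics database, restricted to those with a known protein sequence. Scores were averaged over arrays of the same protein sequence at different concentrations or buffers, and over linkers, and negative values can be taken as non-binding.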
# [2] = target: Fuc(a1-2)[GalNAc(a1-3)]Gal
# Outline: as §1
# [3] = target: Fuc(a1-2)[GalNAc(a1-3)]Gal(b1-3)GalNAc(a1-3)[Fuc(a1-2)]Gal(b1-4)GlcNAc
# Outline: as §1
# [4] = target: Fuc(a1-2)[GalNAc(a1-3)]Gal(b1-3)GalNAc(b1-3)Gal(a1-4)Gal(b1-4)Glc
# Outline: as §1
# [5] = target: Fuc(a1-2)[GalNAc(a1-3)]Gal(b1-3)GlcNAc
# Outline: as §1
# [6] = target: Fuc(a1-2)[GalNAc(a1-3)]Gal(b1-3)GlcNAc(b1-2)Man(a1-3)[Fuc(a1-2)[GalNAc(a1-3)]Gal(b1-3)GlcNAc(b1-2)Man(a1-6)]Man(b1-4)GlcNAc(b1-4)GlcNAc
# Outline: as §1
# [7] = target: Fuc(a1-2)[GalNAc(a1-3)]Gal(b1-3)GlcNAc(b1-2)Man(a1-3)[Fuc(a1-2)[GalNAc(a1-3)]Gal(b1-3)GlcNAc(b1-2)Man(a1-6)]Man(b1-4)GlcNAc(b1-4)[Fuc(a1-6)]GlcNAc
# Outline: as §1
# [8] = target: Fuc(a1-2)[GalNAc(a1-3)]Gal(b1-3)GlcNAc(b1-3)GalNAc
# Outline: as §1
# [9] = target: Fuc(a1-2)[GalNAc(a1-3)]Gal(b1-3)GlcNAc(b1-6)GalNAc
# Outline: as §1
# [10] = target: Fuc(a1-2)[GalNAc(a1-3)]Gal(b1-4)Glc
# Outline: as §1
# [11] = target: Fuc(a1-2)[GalNAc(a1-3)]Gal(b1-4)GlcNAc
# Outline: as §1
# [12] = target: Fuc(a1-2)[GalNAc(a1-3)]Gal(b1-4)GlcNAc(b1-2)Man
# Outline: as §1
# [13] = target: Fuc(a1-2)[GalNAc(a1-3)]Gal(b1-4)GlcNAc(b1-2)Man(a1-3)[Fuc(a1-2)[GalNAc(a1-3)]Gal(b1-4)GlcNAc(b1-2)Man(a1-6)]Man(b1-4)GlcNAc(b1-4)GlcNAc
# Outline: as §1
# [14] = target: Fuc(a1-2)[GalNAc(a1-3)]Gal(b1-4)GlcNAc(b1-2)Man(a1-3)[Fuc(a1-2)[GalNAc(a1-3)]Gal(b1-4)GlcNAc(b1-2)Man(a1-6)]Man(b1-4)GlcNAc(b1-4)[Fuc(a1-6)]GlcNAc
# Outline: as §1
# [15] = target: Fuc(a1-2)[GalNAc(a1-3)]Gal(b1-4)GlcNAc(b1-3)Gal(b1-4)GlcNAc
# Outline: as §1
# [16] = target: Fuc(a1-2)[GalNAc(a1-3)]Gal(b1-4)GlcNAc(b1-3)Gal(b1-4)GlcNAc(b1-3)Gal(b1-4)GlcNAc
# Outline: as §1
# [17] = target: Fuc(a1-2)[GalNAc(a1-3)]Gal(b1-4)GlcNAc(b1-3)GalNAc
# Outline: as §1
# [18] = target: Fuc(a1-2)[GalNAc(a1-3)]Gal(b1-4)GlcNAc(b1-3)[Fuc(a1-2)[GalNAc(a1-3)]Gal(b1-4)GlcNAc(b1-6)]GalNAc
# Outline: as §1
# [19] = target: Fuc(a1-2)[GalNAc(a1-3)]Gal(b1-4)GlcNAc(b1-6)GalNAc
# Outline: as §1
# [20] = target: Fuc(a1-2)[GalNAc(a1-3)]Gal(b1-4)[Fuc(a1-3)]GlcNAc
# Outline: as §1
# [21] = target: Fuc(a1-2)[GalNAc(a1-3)]Gal(b1-4)[Fuc(a1-3)]GlcNAc(b1-3)GalNAc
# Outline: as §1
# [22] = target: Fuc(a1-2)[GalNAc(a1-4)]Gal(b1-4)GlcNAc
# Outline: as §1
# [23] = target: Fuc(a1-2)[GalNAc(b1-3)]Gal
# Outline: as §1
# Fuc(a1-3)GlcNAc = target: Fuc(a1-3)GlcNAc
# Outline: as §1
# [24] = target: Fuc(a1-3)[Gal(b1-4)]Glc6S
# Outline: as §1
# [25] = target: Fuc(a1-3)[Gal(b1-4)]GlcNAc
# Outline: as §1
# [26] = target: Fuc(a1-3)[Gal(b1-4)]GlcNAc(b1-2)Man
# Outline: as §1
# [27] = target: Fuc(a1-3)[Gal(b1-4)]GlcNAc(b1-2)Man(a1-3)[Fuc(a1-3)[Gal(b1-4)]GlcNAc(b1-2)Man(a1-6)]Man(b1-4)GlcNAc(b1-4)GlcNAc
# Outline: as §1
# [28] = target: Fuc(a1-3)[Gal(b1-4)]GlcNAc(b1-2)Man(a1-3)[Fuc(a1-3)[Gal(b1-4)]GlcNAc(b1-2)Man(a1-6)]Man(b1-4)GlcNAc(b1-4)[Fuc(a1-6)]GlcNAc
# Outline: as §1
# [29] = target: Fuc(a1-3)[Gal(b1-4)]GlcNAc(b1-3)Gal(b1-3)[Fuc(a1-4)]GlcNAc
# Outline: as §1
# [30] = target: Fuc(a1-3)[Gal(b1-4)]GlcNAc(b1-3)Gal(b1-4)[Fuc(a1-3)]GlcNAc
# Outline: as §1
# [31] = target: Fuc(a1-3)[Gal(b1-4)]GlcNAc(b1-3)Gal(b1-4)[Fuc(a1-3)]GlcNAc(b1-3)Gal(b1-4)[Fuc(a1-3)]GlcNAc
# Outline: as §1
# [32] = target: Fuc(a1-3)[Gal(b1-4)]GlcNAc(b1-3)GalNAc
# Outline: as §1
# [33] = target: Fuc(a1-3)[Gal(b1-4)]GlcNAc(b1-6)GalNAc
# Outline: as §1
# [34] = target: Fuc(a1-3)[Gal(b1-4)]GlcNAc(b1-6)[Gal(b1-3)GlcNAc(b1-3)]Gal(b1-4)Glc
# Outline: as §1
# [35] = target: Fuc(a1-3)[Gal(b1-4)]GlcNAc6S
# Outline: as §1
# [36] = target: Fuc(a1-3)[Gal3S(b1-4)]Glc
# Outline: as §1
# [37] = target: Fuc(a1-3)[Gal3S(b1-4)]GlcNAc
# Outline: as §1
binder,measurement,setting,value
FimD (Bordetella pertussis) (protein) MPARVISFCGAALAVWAGLAVQPAMAVDPPVDCGRALGLHFWSSASLISDQTPDGTLIGKPVVGRSLLSKSCKVPDDIKEDLSDNHDGEPVDIVLELGSNYKIRPQSYGHPGIVVDLPFGSTEETGIAIYIDFGSSPMQKVGERQWLYPQKGEVLFDVLTINGDNAEVRYQAIKVGPLKRPRKLVLSQFPNLFTYKWVFMRGTSQERVLAQGTIDTDVATSTIDLKTCRYTSQTVSLPIIQRSALTGVGTTLGMTDFQMPFWCYGWPKVSVYMSATKTQTGVDGVALPATGQAAGMASGVGVQLINGKTQQPVKLGLQGKIALPEAQQTESATFSLPMKAQYYQTSTSTSAGKLSVTYAVTLNYD,glycan array binding signal (z-score),[1],-0.259
same,glycan array binding signal (z-score),[2],-0.243
same,glycan array binding signal (z-score),[3],-0.445
same,glycan array binding signal (z-score),[4],-0.248
same,glycan array binding signal (z-score),[5],-0.266
same,glycan array binding signal (z-score),[6],0.083
same,glycan array binding signal (z-score),[7],-0.129
same,glycan array binding signal (z-score),[8],0.047
same,glycan array binding signal (z-score),[9],-0.285
same,glycan array binding signal (z-score),[10],-0.215
same,glycan array binding signal (z-score),[11],-0.489
same,glycan array binding signal (z-score),[12],-0.249
same,glycan array binding signal (z-score),[13],0.77
same,glycan array binding signal (z-score),[14],-0.394
same,glycan array binding signal (z-score),[15],-0.394
same,glycan array binding signal (z-score),[16],0.141
same,glycan array binding signal (z-score),[17],-0.582
same,glycan array binding signal (z-score),[18],-0.219
same,glycan array binding signal (z-score),[19],-0.312
same,glycan array binding signal (z-score),[20],0.292
same,glycan array binding signal (z-score),[21],19.2
same,glycan array binding signal (z-score),[22],-0.348
same,glycan array binding signal (z-score),[23],-0.179
same,glycan array binding signal (z-score),Fuc(a1-3)GlcNAc,0.023
same,glycan array binding signal (z-score),[24],-0.323
same,glycan array binding signal (z-score),[25],-0.271
same,glycan array binding signal (z-score),[26],-0.452
same,glycan array binding signal (z-score),[27],0.59
same,glycan array binding signal (z-score),[28],0.875
same,glycan array binding signal (z-score),[29],-0.439
same,glycan array binding signal (z-score),[30],-0.006
same,glycan array binding signal (z-score),[31],-0.363
same,glycan array binding signal (z-score),[32],0.367
same,glycan array binding signal (z-score),[33],0.306
same,glycan array binding signal (z-score),[34],-0.238
same,glycan array binding signal (z-score),[35],-0.043
same,glycan array binding signal (z-score),[36],-0.369
same,glycan array binding signal (z-score),[37],-0.014
